Measured values taken from PubChem BioAssay AID493208 (National Center for Advancing Translational Sciences (NCATS), 2011).
Hit rate of the full screen: of about 44,000 compounds, about 340 (0.77%) were called active. Inconclusive results (about 5%) are left out. Calls come from the whole dose curve; as a rule, active = well fitted inhibition curve with a large enough effect; inconclusive = small, poorly fitted or top-dose-only effect; inactive = flat fitted curve, though single readings scatter. This is one part of the list.

Assay: Acumen qHTS Assay for Inhibitors of the mTORC1 Signaling Pathway in MEF (Tsc2-/-, p53-/-) Cells: Sytravon;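 note: plate controls were DMSO for no effect and rapamycin for full effect; nearly all actives have a fitted effect of over 50% in size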
Details: phospho-rpS6 immunofluorescence/PI, 24 h; series mostly up to 38.3 µM; activity change, negative = inhibition: at the top concentration
In short: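 Cell-based qHTS: Tsc2-/- p53-/- MEF, 24 h cpd, 37 °C; fix/perm, anti-phospho-S6 Alexa-488 + PI; Acumen 488 nm scan; pS6/PI ratio, % positive cells; rapamycin 7.5 nM = inhibition ref; PI count = viability.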

Structure (SMILES) | activity change, negative = inhibition
CCC(C)NC(=O)CN1C(=O)COc2ccc(S(=O)(=O)N3CCOCC3)cc21 (stereo not given) | inactive: -1.25%
Cc1cccc(Oc2ccc3c(c2)Oc2ccccc2NC3=O)c1 | inactive: -15.1%
Cc1ccc(NC(=O)Cn2cc(S(=O)(=O)N3CCC(C)CC3)c3ccccc3c2=O)c(Br)c1 | inactive: 6.97%
COc1ccc(CNC(=O)c2cnn(-c3ccc(F)cc3)c2-n2cccc2)cc1 | inactive: -3.85%
CCCCN(CCCNC(=O)c1c(C)oc2nc[nH]c(=O)c12)Cc1ccccc1 | inactive: -4.35%
CNC(=O)c1c(NC(=O)c2ccc(S(=O)(=O)N3CCCCC3C)cc2)sc2c1CCC2 (stereo not given) | inactive: -4.88%
Cc1ccc(Nc2c(-c3cccnc3)nc3ccc(Br)cn23)cc1 | inactive: -1.35%
COc1ccc(-c2nnc(SCC(=O)N(C)Cc3ccccc3)o2)cc1OC | inactive: 1.59%
CCOC(=O)c1cc(-c2ccccc2)n(-c2cccc(C(=O)Nc3cccc(C(C)=O)c3)c2)c1C | inactive: -5.12%
COc1cccc(N2CCN(C(=O)CN3C(=O)COc4ccc(S(=O)(=O)N5CCC(C)CC5)cc43)CC2)c1 | inactive: -16.2%
Cc1oc2c(c(C)cc3oc(=O)c(CC(=O)NCc4ccccc4)c(C)c32)c1C | inactive: 1.29%
COc1ccc(C)cc1-n1nnc(C(=O)Nc2cccc(SC)c2)c1C | inactive: 3.4%
Cc1c(Cl)cccc1NC(=O)Cn1cc2c(n1)CCCC2 | inactive: 5.15%
COc1ccc(C(=O)NCC(c2cccnc2)N2CCc3ccccc32)cc1OC (stereo not given) | inactive: 9.36%
Cc1cccc(CNC(=O)c2ccc(NC(=O)N3CCSc4ccccc43)cc2)c1 | inactive: 2.47%
O=C(CSc1nc2c([nH]c3ccccc32)c(=O)n1-c1ccccc1)N1CCCCCC1 | inactive: -1.54%
CC1CCc2c(sc(NC(=O)COc3ccccc3C(C)(C)C)c2C#N)C1 (stereo not given) | inactive: 16.9%
Cc1ccc(NC(=O)Cn2c(SCc3ccc(F)cc3)nc3cccnc32)cc1F | inactive: 1.56%
O=C(O)c1ccc(NC(=O)c2cc3ccccc3o2)cc1 | inactive: 8.69%
CCc1ccc(-n2nc(C)c3c(C)cc(=O)n(CC(=O)Nc4ccccc4C(=O)OC)c32)cc1 | inactive: -11.8%
CSCCC(NS(=O)(=O)c1ccc2c(c1)oc(=O)n2C)C(=O)N1CCN(c2ccc(F)cc2)CC1 (stereo not given) | inactive: -0.389%
CCCCOc1ccc(C(=O)N/C(=C\c2ccc(Br)cc2)C(=O)NC2CCCCC2)cc1 | inactive: 3.83%
Cc1nc2c3ccccc3nc(NNC(=O)CCC(=O)N3CCN(c4cccc(C(F)(F)F)c4)CC3)n2n1 | inactive: -1.27%
Cc1cccc(-n2ccnc2SCC(=O)Nc2ccc3c(c2)OCO3)c1 | inactive: -1.41%

Structure (SMILES) | activity change, negative = inhibition
O=C(Nc1cccc(F)c1)C1CCN(c2nc3ccccc3[nH]2)CC1 | inactive: -15.7%
CCc1cccc(NC(=O)CCS(=O)(=O)c2ccc3nc(C)sc3c2)c1 | inactive: 1.92%
COc1ccc(CNc2ncnc3c2cnn3-c2ccc(C)c(C)c2)cc1 | inactive: 0%
COc1ccc(CN2C(=O)c3oc4ccccc4c(=O)c3C2c2ccc(O)c(OC)c2)cc1 (stereo not given) | inactive: -2.45%
CCCCSCCCNC(=O)C1CCC(CNS(=O)(=O)c2c(C)cc(C)cc2C)CC1 (stereo not given) | inactive: -10.6%
CCOc1ccc(CNC(=O)c2ccc3c(c2)nc2n3CCC(C)C2)cc1OC (stereo not given) | inactive: -15.8%
COc1cccc(C(=O)NC2CC(=O)N(c3ccc4c(c3)OCCO4)C2)c1OC (stereo not given) | inactive: -8.23%
CC(=O)c1ccc(NC(=O)CCc2c(C)nn(-c3ccc(N4CCCCC4)nn3)c2C)cc1 | inactive: -3.42%
Cc1csc2nc(CCNS(=O)(=O)c3ccc(F)cc3)cn12 | inactive: 0.195%
CCOC(=O)c1c(NC(=O)c2ccc(OC)c(OC)c2)sc2c1CCCCC2 | inactive: 0.351%
O=C(Nc1ccc2oc(-c3ccc(Cl)cc3)nc2c1)c1ccc2ccccc2c1 | inactive: 5.21%
CCN(CC)c1cc(C)c2cc(NC(=O)c3ccc(F)cc3Cl)ccc2n1 | inactive: -4.35%
Cn1c(=O)oc2cc(S(=O)(=O)N3CCC(C(=O)N4CCN(c5ccc(Cl)cc5)CC4)CC3)ccc21 | inactive: -3.46%
CCOc1ccccc1NC(c1nnc(-c2ccccc2)o1)c1ccc(F)cc1Cl (stereo not given) | inactive: -7.59%
Cc1cccc(NS(=O)(=O)c2ccc(NC(=O)N3CCCC3)cc2)c1 | inactive: -8.62%
CCOC(=O)c1cc(C)n(CC2CCC(C(=O)Nc3ccc(C(=O)OC)cc3)CC2)c1C (stereo not given) | inactive: -9.44%
Cc1ccccc1CNC(=O)Nc1ccc2c(c1)N(C)C(=O)c1ccccc1S2 | inactive: -28.1%
COc1ccc(C2CC(=O)N(Cc3ccccc3)c3c2c(C)nn3-c2nc(C)cc(C)n2)c(OC)c1 (stereo not given) | inactive: -13.6%
CCC(=O)N1CCc2cc(Br)cc(S(=O)(=O)CCC(=O)NCCc3ccccc3)c21 | inactive: -14.9%
CCc1ccccc1NC(=O)Cn1cc2c(n1)CCC(C)C2 (stereo not given) | inactive: 2.79%
O=c1cc(-c2ccccc2)c2ccc3c(c2o1)CN(Cc1ccccc1)CO3 | inactive: 6.25%
CCc1ccc(NS(=O)(=O)c2ccc3[nH]cc(C(=O)N(C)Cc4ccco4)c(=O)c3c2)cc1 | inactive: 0.447%
CC(C)CN(CCNC(=O)c1cn(C)c2ccc(S(=O)(=O)N3CCCC3)cc2c1=O)CC(C)C | inactive: -12.1%
CCCN(C(=O)CCNC(=O)Cn1cnc2ccccc2c1=O)c1cccc(C)c1 | inactive: 11.1%

Structure (SMILES) | activity change, negative = inhibition
Cc1nn(-c2ccc(N3CCCCC3)nn2)c(C)c1CCC(=O)NCc1ccc(Cl)cc1 | inactive: -23.6%
CCC(C)NC(=O)c1sc2ncccc2c1-n1c(C)ccc1C (stereo not given) | inactive: -14.7%
CCCc1cc(=O)[nH]c(Nc2cc(Cl)ccc2OC)n1 | inactive: -4%
Cc1ccc(-n2nc(C(=O)N3CCN(c4cccc(C(F)(F)F)c4)CC3)c3c4ccccc4n(C)c3c2=O)cc1 | inactive: -2.46%
CCOc1cc(C2c3c(oc4ccccc4c3=O)C(=O)N2c2ccccn2)ccc1O (stereo not given) | inactive: 6.08%
Cc1ccc(C)c(-c2[nH]c3c(c2-c2c(-n4cccc4)n(C)c(=O)n(C)c2=O)c(=O)n(C)c(=O)n3C)c1 | inactive: 1.13%
Cc1cccc(NC(=O)COc2cccc3c(=O)n(C)ccc23)c1C | inactive: -9.6%
CCOC(=O)c1ccc2[nH]c(CSc3nnc(-c4cccc(F)c4)n3C)cc(=O)c2c1 | inactive: -1.77%
Cc1ccc(CNc2cc(C)nc3nc(-c4cccc(C)c4)nn23)cc1 | inactive: -19.1%
COc1ccc(OC)c(NC(=O)c2cc(=O)c3c(C)cc(C)cc3o2)c1 | inactive: 2.19%
CCOC(=O)c1c(NC(=O)c2cc(Cl)ccc2Cl)sc2c1CCCC2 | inactive: 5.11%
Cc1ccc(CNc2nccn(-c3cc(C)cc(C)c3)c2=O)cc1 | inactive: -7.37%
CN(C(=O)CSc1nc2ccc(NC(=O)COc3ccccc3)cc2s1)c1ccccc1 | inactive: -16.6%
Cc1cn2c(=O)c(S(=O)(=O)NCc3ccccc3Cl)c(C)nc2s1 | inactive: 2.98%
Cc1cc(C)n(CCc2nc3c4ccccc4nc(N4CCN(c5ccc(F)cc5)CC4)n3n2)n1 | inactive: -0.421%
CCN(C(=O)CSc1nc2n[nH]c(C)c2c(=N)n1-c1cccc(OC)c1)c1cccc(C)c1 | inactive: -27.7%
COc1ccc(-c2ccc(CCC(=O)O)n2-c2ccc(Cl)cc2C)cc1 | inactive: -21.8%
CCOC(=O)c1cccc(NC(=O)CCc2c(C)nn(-c3ccc(N4CCOCC4)nn3)c2C)c1 | inactive: -9.32%
COc1ccc(C2Oc3nc(SC)nnc3-c3ccccc3N2C(C)=O)cc1 (stereo not given) | inactive: 8.7%
CCc1ccc(-n2nc(CO)c(C(=O)NCc3ccccc3OC)n2)cc1 | inactive: -4.27%
COCCCn1c(=O)c2sccc2n2c(CCCC(=O)NCc3ccc(F)cc3)nnc12 | inactive: -2.45%
CCn1cc(S(=O)(=O)c2cccc(C)c2)c(=O)c2cc(F)c(N3CCN(c4ccccc4)CC3)cc21 | inactive: 3.29%
Cc1ccc2[nH]c3c(=O)n(CC(=O)NCCc4ccc(Cl)cc4)ncc3c2c1 | inactive: 3.64%
COc1ccc(NC(=O)C2CCN(c3cnccn3)CC2)cc1Cl | inactive: 1.49%

Structure (SMILES) | activity change, negative = inhibition
CCc1ccc(-n2nc(CO)c(C(=O)NCC(c3ccccc3)c3ccccc3)n2)cc1 | inactive: 1.63%
Cc1ccc(N(Cc2cc3ccccc3[nH]c2=O)C(=O)c2cccc(Cl)c2)cc1 | inactive: 6.51%
CCN(CC)CCCNC(=O)CSc1nc2nc(C)c(Cc3c(F)cccc3Cl)c(C)n2n1 | inactive: 0%
Cc1ccc(-c2cn3c(n2)sc2cc(C(=O)NCc4cccs4)ccc23)c(C)c1 | inactive: -10.1%
COc1ccc(OCC2c3cc(OC)c(OC)cc3CCN2C(=O)COc2ccc(Cl)cc2Cl)cc1 (stereo not given) | inactive: 14.7%
COc1ccc(Cn2ccc3nc(C)c(C(=O)N4CCN(c5ccccc5OC)CC4)cc3c2=O)cc1 | inactive: -0.644%
CC(C)NC(=O)C(c1ccccc1)N1Cc2ccccc2C1=O (stereo not given) | inactive: 0%
CC(C)c1ccc2occ(CC(=O)Nc3ccccc3Cl)c2c1 | inactive: -4.09%
Cc1ccc(C)c(NC(=O)Cn2c(=O)n(Cc3ccc4c(c3)OCO4)c(=O)c3oc4ccccc4c32)c1 | inactive: 2.32%
CC1=C(C(N)=O)C(c2cccc(C)c2)n2nc(-c3cccc(C)c3)nc2N1 (stereo not given) | inactive: -7.29%
COc1ccc(-c2noc(CSc3nc(C)cc(=O)[nH]3)n2)cc1OC | inactive: -15.7%
Cc1ccc(CSc2nnc(-n3c(=O)c(C#N)cc4c(=O)n5cc(C)ccc5nc43)s2)cc1 | inactive: -0.53%
CCOC(=O)C1CCN(S(=O)(=O)c2ccc(N3CCCCS3(=O)=O)cc2)CC1 | inactive: 2.05%
CCn1c(SCc2ccc(F)cc2Cl)nc(=O)c2c(C(=O)OC)cc(C3CC3)nc21 | inactive: -3.44%
CC(C)C1N=C2c3ccccc3N=C(SCC(=O)NCc3ccccc3Cl)N2C1=O (stereo not given) | inactive: 6.42%
Cc1ccc(CNC(=O)c2cc(-c3ccc(C)cc3)nc3n[nH]c(-c4ccc(F)cc4)c23)cc1 | inactive: 0.362%
CCCn1c(=O)c2sccc2n2c(CCCC(=O)Nc3ccc(Oc4ccccc4)cc3)nnc12 | inactive: -0.219%
COc1ccc(OC)c(CNC(=O)c2c(C)oc3ncn(C)c(=O)c23)c1 | inactive: 5.05%
O=C(c1ccc2c(c1)CCN2S(=O)(=O)c1ccc(Cl)cc1)N1CCN(c2ccccc2)CC1 | inactive: 1.89%
CCOc1ccc(CN2C(=O)c3ccccc3Sc3ccc(C(=O)OC)cc32)cc1 | inactive: 8.88%
CC(=O)Nc1ccc(S(=O)(=O)NCc2cccn2Cc2cccc(C)c2)cc1 | inactive: 0%
COc1ccc(CNC(=O)c2ccc3c(c2)N(Cc2ccccc2C)C(=O)c2ccccc2S3=O)cc1 (stereo not given) | inactive: 3.74%
O=C(NCc1ccc(F)cc1)C1CCN(c2ncnc3c2nc2n3CCCCC2)CC1 | inactive: 1.34%
